Assay results taken from CN115433274A (BEIJING KENUO XINCHENG TECH CO LTD, dated 2022).

Columns and labels:
人血清白蛋白(HSA)重组蛋白 [1] = target: T1, 人血清白蛋白(HSA)重组蛋白 (human, UniProt P02768); test: BLI (Octet QKe), antibody captured on AHC probe, HSA 60 nM in solution, 1:1 fit
T1 construct: Bought product; also called Human serum albumin; 人SA

人血清白蛋白(HSA)重组蛋白 [2] = target: T1, 人血清白蛋白(HSA)重组蛋白; test: ELISA, albumin coated at 1 μg/mL, HRP-anti-human Fc
食蟹猴SA重组蛋白 = target: T2, 食蟹猴SA重组蛋白 (cynomolgus monkey, UniProt A2V9Z4 25-608, limits assumed); test: as above
T2 construct: Bought product; also called cyno SA; Cynomolgus serum albumin

小鼠SA重组蛋白 [3] = target: T3, 小鼠SA重组蛋白 (mouse, UniProt P07724 25-608); test: ELISA, mouse SA coated at 1 μg/mL, detection with HRP-anti-human Fc
T3 construct: Bought product; also called MSA; 鼠血清白蛋白

小鼠SA重组蛋白 [4] = target: T3, 小鼠SA重组蛋白; test: ELISA, albumin coated at 1 μg/mL, HRP-anti-human Fc
人血清白蛋白(HSA)重组蛋白 [5] = target: T1, 人血清白蛋白(HSA)重组蛋白; test: BLI (Octet QKe), antibody captured on AHC probe, HSA 60 nM in solution, 1:1 fit; remark: listed apart in the source

Row | Kd (人血清白蛋白(HSA)重组蛋白 [1]) [nM] | binding result (食蟹猴SA重组蛋白) | Binder | also measured
1 | 27.9 |  | 嵌合抗体ch2H1 (Fc fusion) EVQLQESGGGSVQAGGSLRLSCAASGGSYRPNCVAWFRQVPGKEREGVGAIYTDSGISGTTYYADSVKGRFTISQDVTKNMVYLQMNSLKPEDTAMYYCAADWKYDGSRCGLEVEYDSRGQGTQVTVSSAS[letters of human IgG1 Fc with changes omitted] | 
2 | 7.79 |  | 嵌合抗体ch2H4 (Fc fusion) EVQLQESGGGSVQAGGSLRLSCAASLVSYRPNCVAWFRQVPGKEREGVAAIYTDSGLSGTTYYADSVKGRFTISQDDTKNMVYLQMNSLKPEDAAMYYCAADWKYDSTRCGLEVEYDSRGQGTQVTVSSAS[letters of human IgG1 Fc with changes omitted] | 
3 | 16.2 |  | 嵌合抗体ch2H2 (Fc fusion) EVQLQESGGGLVQPGGSLRLSCAASGFTFSNYGMSWFRQAPGKALEWVSGIYSDGSNTYYADSVKGRFTISRDNAKNTLYLQMNSLKSEDTALYYCATTYNVQFAATAGIKLTDFDYRGQGTQVTVSSAS[letters of human IgG1 Fc with changes omitted] | 
4 |  | binds | 人源化抗体hzH4 (Fc fusion, also called 人源化2H4) EVQLVESGGGLVQPGGSLRLSCAASGVSYRPNCVAWFRQAPGKEREGVAAIYTDSGLSGTTYYADSVKGRFTISRDNAKNSLYLQMNSLRAEDTAVYYCAADWKYDSTRCGLEVEYDSWGQGTLVTVSSAS[letters of human IgG1 Fc with changes omitted] | binding result (人血清白蛋白(HSA)重组蛋白 [2]): binds; binding result (小鼠SA重组蛋白 [3]): no binding (tested: 起始浓度为1μg/mL)
5 | 0.579 |  | 嵌合抗体ch2MG6 (Fc fusion) QVQLQESGGGLVQAGGSLRLSCAASGSTYPTAYIAWFRQAPGKEREGVAGIYTVGGSTFYTDSVKGRFTISRDNAKNTVYLLMNSLKPEDTAMYFCAAGRTDTAKLRDPRSFGYWGQGTQVTVSSAS[letters of human IgG1 Fc with changes omitted] | 
6 |  | binds | 人源化抗体hz2MG6 (Fc fusion) EVQLVESGGGLVQAGGSLRLSCAASGSTYPTAYIAWFRQAPGKEREGVAGIYTVGGSTFYTDSVKGRFTISRDNAKNSLYLQMNSLRAEDTAVYFCAAGRTDTAKLRDPRSFGYWGQGTLVTVSSAS[letters of human IgG1 Fc with changes omitted] | binding result (小鼠SA重组蛋白 [4]): binds; Kd (人血清白蛋白(HSA)重组蛋白 [5]): 1.72 nM

Where two headings read alike, the source gives them in different places.
